Measured values as given in PubChem BioAssay AID1347120 (National Center for Advancing Translational Sciences (NCATS), 2019).
The whole screen tested about 390,000 compounds, of which about 930 (0.24%) were called active. This list was built around the results that the source calls inconclusive (neither active nor inactive); the mix of calls is not that of the screen. Calls follow the shape of the dose curve; as a rule, active = well fitted activation curve with a large enough effect; inconclusive = small, poorly fitted or top-dose-only effect; inactive = no such curve, though single readings can be large or run the other way. Where the call is inconclusive, the potency comes from a doubtful curve fit.

experiment: qHTS for Suppressors of FUS Proteinopathy: Primary screen using FUS-linked yeast assay; also: nearly all actives have a fitted effect of over 55% in size;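 as to growth rescue (activation): plate controls were DMSO vehicle for no effect and reference control for full effect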; details: S. cerevisiae FUS-expressing, OD600, 24 h; Potency: growth rescue; growth rescue (activation): at 76.6 µM (top of the series)
How it was run: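 Yeast FUS proteinopathy model; galactose-induced FUS (2%), starting OD 0.005. Cpds in dilution series, 24hr, 30C, 99% humidity. Abs 600 nm growth. Pos ctrl CP55940 (top 92uM final); neg ctrl DMSO.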
Potency is read from the fitted curve at half-maximal effect; tags tell the direction and shape of the fitted curve.

| Structure (SMILES) | Potency | growth rescue (activation) |
| --- | --- | --- |
| O=C(CN1c2cccc3cccc(c23)S1(=O)=O)N1CCN(c2ccc(F)cc2)CC1 | inconclusive: 39.8 µM [activator, single point] |  |
| COC(=O)[C@]12CCCCC=C1N(CCC1=CCCCC1)C(=O)[C@H](CC(=O)NCCCCc1ccccc1)C2 | inconclusive: 31.6 µM [activator, single point] |  |
| CCC(C)Nc1nc(C)nc2c1oc1ccccc12 (centres undefined) |  | inactive: -5.64% |
| CC(C)(C)c1ccc(C(=O)N2CCC(C(=O)NCCC3=CCCCC3)CC2)cc1 | inconclusive: 25.1 µM [activator, single point] |  |
| CCc1cccc(NC(c2nnc(-c3ccccc3)o2)c2ccc(F)cc2Cl)c1 (centres undefined) | inconclusive: 11.2 µM [activator, partial curve] |  |
| CCOc1ccc(-c2cc(C(=O)N3CCN(c4cccc(C)c4)C(C)C3)c3ccccc3n2)cc1 (centres undefined) | inconclusive: 35.5 µM [activator, single point] |  |
| CN(C(=O)CSc1nc2ccc(NC(=O)CCc3ccccc3)cc2s1)c1ccccc1 | inconclusive: 20 µM [activator, single point] |  |
| Cc1ccccc1N(C)S(=O)(=O)c1ccc2[nH]cc(C(=O)NCC3CCCO3)c(=O)c2c1 (centres undefined) | inconclusive: 50.1 µM [activator, single point] |  |
| Cc1ccc(C)c(Cn2c(SCC(=O)N(C)Cc3ccccc3)nc3ccccc32)c1 | inconclusive: 25.1 µM [activator, single point] |  |
| CN(Cc1ccc(Cl)cc1Cl)C(=O)CNC(=O)c1ccco1 |  | inactive: -19.6% |
| CCOC(=O)c1ccc(NC(=O)c2nc[nH]c2C(=O)N[C@H](C)c2ccccc2)cc1 | inconclusive: 31.6 µM [activator, single point] |  |
| Cc1ccccc1S(=O)(=O)NC(=O)C1(C)CCN1C(=O)C1(c2ccc(Cl)cc2)CCC1 (centres undefined) | inconclusive: 25.1 µM [activator, partial curve, poor fit] |  |
| Cc1ccc(N2CC(C(=O)NCc3nnnn3-c3ccc(C)c(C)c3)CC2=O)cc1C (centres undefined) | inconclusive: 28.2 µM [activator, single point] |  |
| CC(C)C[C@H](NC(=O)c1[nH]cnc1C(=O)N[C@@H](C)C(=O)OC(C)(C)C)C(=O)OC(C)(C)C | inconclusive: 17.8 µM [activator, single point] |  |
| CCOC(=O)[C@]12CCCC=C1N(CCC1=CCCCC1)C(=O)[C@H](CC(=O)NCC1CCCCC1)C2 | inconclusive: 15.8 µM [activator, partial curve] |  |
| CCCCCCCCN1C(=O)[C@H](CC(=O)NCCc2ccccc2OC)C[C@@]2(C(=O)OCC)CCC=C12 | inconclusive: 14.1 µM [activator, partial curve, poor fit] |  |
| COc1ccc(C2c3sc(=O)[nH]c3SC3C(=O)N(c4ccccc4)C(=O)C32)cc1 (centres undefined) | inconclusive: 11.2 µM [activator, full curve, poor fit] |  |
| COc1ccccc1CCn1cnc(Cc2ccccc2)c1C(C)C |  | inactive: 16.1% |
| CCc1ccc(S(=O)(=O)Nc2cccc(-c3ccc(OC)nn3)c2)s1 | inconclusive: 31.6 µM [activator, partial curve, poor fit] |  |
| CCOC(=O)C1=C(C)N(C[C@@H]2CC[C@@H](Cc3ccc(-c4ccccc4)cc3)O2)C(=O)NC1c1ccc(SCc2ccco2)c([N+](=O)[O-])c1 (some centres undefined) | inconclusive: 12.6 µM [activator, partial curve, poor fit] |  |
| CCOc1ccc(-n2c(SCC(=O)Nc3ccc4c(c3)c3ccccc3n4CC)nnc2-c2cccnc2)cc1 | inconclusive: 35.5 µM [activator, partial curve, poor fit] |  |
| O=C(COC(=O)COc1ccc(Cl)cc1Br)NC1CCCCCC1 |  | inactive: -11.1% |

| Structure (SMILES) | Potency | growth rescue (activation) |
| --- | --- | --- |
| COc1cc2nc(=S)n3[nH]c(CCn4nc(C)cc4C)nc3c2cc1OC | inconclusive: 25.1 µM [activator, partial curve, poor fit] |  |
| Clc1ccc(-n2ncc3c(NCC4CCCO4)ncnc32)cc1 (centres undefined) |  | inactive: -8.1% |
| CC(C)CC(=O)NC(=S)Nc1cccc(NC(=O)c2ccccc2)c1 |  | inactive: -6.39% |
| N#C/C(C(=O)NCc1ccccc1)=C1/N=C(NC(=O)c2ccco2)c2ccccc21 |  | inactive: 1.42% |
| Cc1csc(NC(=O)c2ccc(Cn3nc(C)c(Br)c3C)o2)n1 |  | inactive: 37% |
| CCc1ccccc1Nc1nc2ccccc2[nH]1 |  | inactive: 21.6% |
| O=C(CN1CCN(S(=O)(=O)c2ccc(Br)cc2)CC1)N/N=C/c1ccc(Br)s1 | inconclusive: 39.8 µM [activator, partial curve, poor fit] |  |
| COc1ccc(C(=O)NNC(=O)C(=O)/C=C(\O)c2ccc(C)cc2)cc1 | inconclusive: 35.5 µM [activator, single point] |  |
| CCOC(=O)Cc1nnc(NC(=O)COc2ccc(OC)cc2)s1 | inconclusive: 12.6 µM [activator, partial curve, poor fit] |  |
| C=CCn1c(SCc2cccc(C(F)(F)F)c2)nnc1-c1ccc(OC)cc1 |  | inactive: 41.7% |
| COc1ccc(-n2c(SCc3nc(-c4ccc(Cl)cc4)no3)nnc2-c2ccncc2)cc1 | inconclusive: 35.5 µM [activator, partial curve, poor fit] |  |
| COC(=O)c1cc(C)sc1NC(=O)CCc1ccccc1 |  | inactive: 10.6% |
| COc1ccc(-n2c(=S)[nH]c3cc(C(=O)NCc4ccco4)ccc3c2=O)c(OC)c1 | inconclusive: 50.1 µM [activator, single point] |  |
| Cn1c(=O)c2c(n(Cc3ccccc3)c1=O)NC(=O)C2CC(=O)N1CCc2ccccc2C1 (centres undefined) | inconclusive: 50.1 µM [activator, partial curve, poor fit] |  |
| COC(=O)[C@@]1(Cc2ccc(OC)cc2)[C@H]2c3cc(C(=O)N4CCCC4)n(CCSCCO)c3C[C@H]2CN1C(=O)c1ccccc1 | inconclusive: 14.1 µM [activator, partial curve] |  |
| O=C(O)COc1ccccc1C1Nc2ccccc2-c2nnc(SCc3ccc(Cl)cc3)nc2O1 (centres undefined) |  | inactive: 22.9% |
| COc1cccc(NC(=S)/C(=C(\[O-])c2ccc(C)c([N+](=O)[O-])c2)[n+]2ccccc2)c1 | inconclusive: 28.2 µM [activator, partial curve, poor fit] |  |
| Clc1ccc2nc(CN3CCCCCC3)cn2c1 |  | inactive: 15.6% |
| C[C@@H](C(=O)NCc1ccccc1)[C@@H]1C[C@@]1(C)[C@@H](NC(=O)OCc1ccccc1)c1ccccc1 | inconclusive: 31.6 µM [activator, single point] |  |
| COC(=O)Cn1ccc2cc(S(=O)(=O)N3CCCCC3)ccc21 | inactive |  |
| Cc1ccc(S(=O)(=O)n2ccc3c(OCCOCCSCC(NC(=O)OC(C)(C)C)C(=O)O)cccc32)cc1 (centres undefined) | inconclusive: 22.4 µM [activator, partial curve, poor fit] |  |
| CCOC(=O)c1ccccc1NC(=O)c1nn(-c2ccc(C)cc2)c(=O)n(C)c1=O |  | inactive: -7.13% |

| Structure (SMILES) | Potency | growth rescue (activation) |
| --- | --- | --- |
| COC(=O)/C=c1/s/c(=C(\C#N)C(=O)NCc2ccco2)n(-c2ccccc2)c1=O | inconclusive: 17.8 µM [activator, partial curve, poor fit] |  |
| CCCCN(Cc1ccco1)C(=O)c1cc2c(s1)-c1c(C)cccc1OC2 | inconclusive: 44.7 µM [activator, single point] |  |
| Cc1ccc2oc(=O)n(Cc3ccc(OC(C)C)cc3)c2c1 |  | inactive: -10.6% |
| O=C(NC(NC(=S)Nc1ccccc1C(=O)O)C(Cl)(Cl)Cl)c1cccc([N+](=O)[O-])c1 (centres undefined) | inconclusive: 35.5 µM [activator, single point] |  |
| Cc1cc(-c2n[nH]c(=S)n2/N=C/c2ccc(C)s2)n[nH]1 | inconclusive: 14.1 µM [activator, partial curve] |  |
| CC1(C)C(c2cccs2)=NC(c2ccccc2)N1O (centres undefined) |  | inactive: 11.3% |
| CCN(CC)C(=O)c1sc2nc(-c3ccccn3)[nH]c(=O)c2c1C |  | inactive: 19% |
| CN1C(=O)C2(Nc3ccccc3-c3nc4ccccc4n32)c2ccccc21 (centres undefined) | active: 50.1 µM |  |
| CCOC(=O)N1CCC(N2Cc3cccc(C(=O)NC(C)c4ccc5c(c4)OCCO5)c3C2=O)CC1 (centres undefined) | inconclusive: 20 µM [activator, partial curve] |  |
| COCCSc1ccccc1C(=O)Nc1ccccc1C(C)C |  | inactive: -31.1% |
| COc1ccc(N2CCN(C(=O)c3ccc(NC(=O)c4nsc5ccccc45)cc3)CC2)cc1 | inconclusive: 44.7 µM [activator, single point] |  |
| Cc1ccc(C)c(N2CCN(C(=O)c3ccc(CS(=O)Cc4ccc(Cl)cc4)o3)CC2)c1 (centres undefined) | inconclusive: 50.1 µM [activator, single point] |  |
| S=C(NCc1ccco1)Nc1ccccn1 |  | inactive: -4.85% |
| O=C(Nc1ccc2c(c1)OCCO2)C(c1ccc(C(F)(F)F)cc1)n1c(=O)c(-c2cc3ccccc3[nH]2)nc2ccccc21 (centres undefined) |  | inactive: 41.6% |
| Cc1ccc(-c2cc(C(=O)OCC(=O)N(C)C3CCS(=O)(=O)C3)c3ccccc3n2)c(C)c1 (centres undefined) | inconclusive: 35.5 µM [activator, single point] |  |
| CCc1cccc(-n2c(=O)c3cccnc3n2CC(=O)NCc2ccccc2Cl)c1 |  | inactive: -11.6% |
| O=C(NCc1ccccc1)C1(c2ccccc2)CCN(S(=O)(=O)c2ccccc2)CC1 | inconclusive: 50.1 µM [activator, partial curve, poor fit] |  |
| CCC(C(=O)N1CCc2cc(OC)c(OC)cc2C1)c1ccccc1 (centres undefined) | inconclusive: 50.1 µM [activator, single point] |  |
| COc1cc(-c2cc(-c3nnco3)c3ccccc3n2)cc(OC)c1OC |  | inactive: 21.1% |
| O=c1c2nnn(Cc3ccccc3)c2ncn1-c1ccccc1 |  | inconclusive: 57.2% [activator] |
